This is one part of the list.
T1: UNK ZnF1-3 (human, UniProt Q9C0B0 31-174)
T1 sequence: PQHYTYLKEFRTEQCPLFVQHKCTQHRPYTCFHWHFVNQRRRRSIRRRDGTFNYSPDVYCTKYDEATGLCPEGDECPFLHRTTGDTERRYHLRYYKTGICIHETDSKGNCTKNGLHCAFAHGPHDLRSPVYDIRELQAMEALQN

B1: chr2:9570881:9570882:+_ENSG00000119203_ENST00000238112|hu_mus|hu_hu_hu_mus_False|98_98 (ssRNA)
RNA: GGGAGUUCUACAGUCCGACGAUCACUUGUCUUCUGAAGAAACCAGGGCAGGGCUCCACAGUGAUCCAAAUGGAAAUGACUGAUCAACAGAAGGUCGAUCUCAGCUGGGUCGAUAAGGUCAAUGUAAGGAAGGGCAUCCAUUCCCAACAGAGGAUUGAGCAUCA
B2: chr3:33945423:33945424:+_ENSMUSG00000027680_ENSMUST00000167354|mus_mus|FALSE|FALSE (ssRNA)
RNA: GGGAGUUCUACAGUCCGACGAUCGGUAUUUUUUUUGACAGUUUUAUUUUGAUUGACAGGCCGAAGUCGUUCAAAUGUGACUAUUUCAUUGUAAGUGGCAUCACAAGCAGCAUAUUCAAUGACAUAAAACUCGCCUUUCAUCAUCAACAGAGGAUUGAGCAUCA
B3: chr5:38529174:38529175:-_ENSMUSG00000029126_ENSMUST00000031009|mus_hu|FALSE|FALSE (ssRNA)
RNA: GGGAGUUCUACAGUCCGACGAUCAAGUAGCUCAAGCUUACCAGAAAUUACAUUUCCACUUUUCCCACCCAGCUCAUUUCUUUAAAAACUAAUGGGGCUAUUGGUGCAAAUUUAUUCAUAAUAGAAGUGAACCAGAGGGCCAGUCAACAGAGGAUUGAGCAUCA
B4: chr7:65705844:65705845:+_ENSG00000169902_ENST00000304842|hu_mus|hu_hu_hu_mus_False|1_28 (ssRNA)
RNA: GGGAGUUCUACAGUCCGACGAUCAAACGGAUCUUUGUUACAUAAAUAAGGUGCCGGCUCCCCAUGUUUAACAAUGACCUCCAGAAGGAAGGCUUGCAUGGCAGAAUCCAGCACUUCAUCUGUGACACCCGCCUCAUCCAGGCGCAACAGAGGAUUGAGCAUCA
B5: 82109858_82109978_193_3pUTR_ENSMUSG00000022456_ENSMUST00000023095|mouse|control|control (ssRNA)
RNA: GGGAGUUCUACAGUCCGACGAUCGAUAAUGGUGUCAAUGCCAAUGUAGCCUAGCAGGUUGGAGUUGAUGCUGACCGGCUUCAUGGGCACCGCCGGCUUAGGCCUGGGCUCAGGUACCAGCUCAGACAUGGCUGCGUCCGUCCUCAACAGAGGAUUGAGCAUCA
B6: chr5:156566098:156566099:-_ENSG00000155868_ENST00000420343|hu_mus|FALSE|FALSE (ssRNA)
RNA: GGGAGUUCUACAGUCCGACGAUCGGGUCGAUAUUCAUUUAUAAGAUGAUGUACAUGUACAAAAAGUAGCUUAAGAUCUUCUAGCUUUUCUUCUCGUUUUAUACUCCCAGGACUUCUUAUUAAGAUGUCUAAAAGGUCUAAGAACAACAGAGGAUUGAGCAUCA
B7: chr10:33214929:33214930:-_ENSG00000150093_ENST00000302278|hu_hu|hu_hu_hu_mus_True|78_108 (ssRNA)
RNA: GGGAGUUCUACAGUCCGACGAUCAACAAGUUCAUUAAAAAACUCUCCUCUGUCAGUAAGACUGAGCACAUUUUUGUAGCUAAAUGGGCUGGUGCAGUUUUGUUCACUUGUACAAGGAUUUCUUAGCUUUGCUGGGGUUGUGCUCAACAGAGGAUUGAGCAUCA
B8: chr8:15480645:15480646:+_ENSG00000104723_ENST00000503731|hu_mus|FALSE|FALSE (ssRNA)
RNA: GGGAGUUCUACAGUCCGACGAUCCAUUCUGAAGAUCGAGCGCCUGGAACUCCAUUCCAUCAGCUGCUCCACUUUUUCAGCCAAAAGGUUCUCCUUUUUCUUCUGUCCGCCCCCGAGCUGGAUGCAGAGCAGCAGCAGCAAGAGCAACAGAGGAUUGAGCAUCA
B9: chr1:186329063:186329064:-_ENSG00000047410_ENST00000367478|hu_mus|FALSE|FALSE (ssRNA)
RNA: GGGAGUUCUACAGUCCGACGAUCUUUGGCUUCCACUUCUUUUACUAUCUCAUCCAGAUACUUAUUAAUCCUUUUAUUUUCUUGUUUUUCCAAAAGCAACUGAUCCUGAGUUUCCACAUAAGCAUUAUAUAGCUCAGUUAAUUUCAACAGAGGAUUGAGCAUCA
B10: chr9:115598534:115598535:+_ENSG00000148158_ENST00000374232|hu_hu|motif|central (ssRNA)
RNA: GGGAGUUCUACAGUCCGACGAUCCAGCUUGUAGCCGCCAGUGACGUGCUUGACUGACUCGCCCAUUCUGGUCAGCAAUGCGGUCCCUUGCUUCUUGUAGGCGUUCAGGUCCUUAGCAGUAAGGAAAAUAUUAAAGUGUUCAUUCAACAGAGGAUUGAGCAUCA
B11: chr4:107938606:107938607:-_ENSMUSG00000034636_ENSMUST00000043616|mus_hu|FALSE|FALSE (ssRNA)
RNA: GGGAGUUCUACAGUCCGACGAUCAACAUCCAGAGAAACAAGGUUAGGUAGGAUGUCUUUUUGUUCUAGUAAGCGAAGAGCUAUGUCUGAUGUAAACUGUUUAUCAUCUGAGAUAUCAAGAUGAUUCAGAUGUUUGAGUUCCCGCAACAGAGGAUUGAGCAUCA
B12: chr1:151007788:151007789:+_ENSG00000143363_ENST00000271620|hu_hu|FALSE|FALSE (ssRNA)
RNA: GGGAGUUCUACAGUCCGACGAUCUGGGUCAACACGCCAUGAACCACACCCCUAUUCGUGCUACAUGAGGCUGAGUCCUUGCUACAACCACACAGAAAUACAGACAAUCAAGUGAACCUGAGCACCCCCAGGGAUAACAGAAGACAACAGAGGAUUGAGCAUCA
B13: chr20:52831857:52831858:+_ENSG00000101132_ENST00000441080|hu_mus|motif|central (ssRNA)
RNA: GGGAGUUCUACAGUCCGACGAUCCAGCAUGAUGUCAUCACAGGCGUCCUCUAAGUUCUGGAGAUGUUUCUUCUUCACUUCGGUUUCCUCCUUUAGCUCUGUGAUUCGACUCGUAUUCCGAGCAAAUUUGUUUAUUUUUUGCUGCAACAGAGGAUUGAGCAUCA
B14: 91020442_91020996_3268_CDS_ENSG00000140575_ENST00000268182|human|control|control (ssRNA)
RNA: GGGAGUUCUACAGUCCGACGAUCCAGGGCAUUCUGGCCACGGGCACCACGGUUGAAACUUACAACCAUUUUAAUAACCGUAGGAUUUCCUGUCACAAUCUCUUGAAUCUGAUCUACCUUCGACUUGAUUUCCUCUUGGAGUGCCAACAGAGGAUUGAGCAUCA
B15: chr6:122779733:122779734:-_ENSG00000111897_ENST00000339697|hu_hu|motif|central (ssRNA)
RNA: GGGAGUUCUACAGUCCGACGAUCCAACAUUACACAAGCUACACAUACUCCAACAAGCAAGAAAAGUGCAUAGAUCAAUCGGGUUACAGUGGAGUUGUUUCCACUAGGACAGCAUCGGCAUAGCAAACACGGGGCACUUCCACACAACAGAGGAUUGAGCAUCA
B16: 88512733_88512853_1577_3pUTR_ENSMUSG00000034111_ENSMUST00000037418|mouse|control|control (ssRNA)
RNA: GGGAGUUCUACAGUCCGACGAUCCUUGCUAUGUGGCAGAAACACAGACUUGGUAAAGAGAAAGGAGGAAAGGUCUAACCAUCAGGAAUAAUAAUAUCCAUUCAAGGCAGUGAGGUCUCCCAGCCUGAGCUAGAGACUAAGAAGCAACAGAGGAUUGAGCAUCA
B17: chr1:39494447:39494448:+_ENSG00000168653_ENST00000372967|hu_mus|hu_hu_hu_mus_False|68_78 (ssRNA)
RNA: GGGAGUUCUACAGUCCGACGAUCGCACCGAGCGGCGUUCUUAUAGGGCUGUUCUGCACUCUGGAUUGUCAACCAUCGGUCCAGGCUGAUGCCCAGCUUUUUCUGUAUGUCAAGGAAAGGCAUGGCUCUGCAGUGCCCUUGUCACAACAGAGGAUUGAGCAUCA
B18: chr3:9412954:9412955:+_ENSG00000134077_ENST00000452837|hu_mus|hu_hu_hu_mus_False|28_78 (ssRNA)
RNA: GGGAGUUCUACAGUCCGACGAUCGGUUGAUAUCUCUUCUUUGAUGGCUGGAUUUUCAUAAUAAUCUAAGAUAUGUGAAUCUGAAGUGCUGCUGGCAUGCUUUUUCUUAACAUUUCUCUCAUCUGCUUUGUCUCCUUGUCCACACAACAGAGGAUUGAGCAUCA
B19: chr19:30113593:30113594:+_ENSMUSG00000024817_ENSMUST00000025739|mus_mus|motif|central (ssRNA)
RNA: GGGAGUUCUACAGUCCGACGAUCUUUAACCUGAGCAUCAUUCUGCUUAGAUGUGCUAGGAAGACUGGAGUCUGGACGAACGGGCAGCUGAAUUAUAUCAUUCAGUCCAACGUCGUAGUCAAAUAAAGUAUAUCCAUUUUCCAACAACAGAGGAUUGAGCAUCA
B20: 179965723_179965843_909_3pUTR_ENSG00000135837_ENST00000367607|human|control|control (ssRNA)
RNA: GGGAGUUCUACAGUCCGACGAUCGAGCUCUCAAAAUCACAGCUCCGUAUAUUCCGUUCUUCUCGACUGCCUAUCAUCCAGUUACCGCUCUCAGUCUUUUCUUCAUUAACAUCUACACAGUAUACGUGCUUUGAUUCCAGAUGGCAACAGAGGAUUGAGCAUCA
B21: chr3:108394432:108394433:+_ENSMUSG00000040389_ENSMUST00000051145|mus_mus|motif|central (ssRNA)
RNA: GGGAGUUCUACAGUCCGACGAUCAGGAAAACGCGGAGGAGAGGCCGGCGGCCAGAGCCCCGAGACAGCCAAUUCCAGUCGGAGGCGCGAGCGCGAGGGCGGCGGUCUGGGCUAAGCAGCCCGCACGUCAAUCCAUCAGCUCGUCAACAGAGGAUUGAGCAUCA
B22: chr1:160302343:160302344:-_ENSG00000122218_ENST00000241704|hu_mus|FALSE|FALSE (ssRNA)
RNA: GGGAGUUCUACAGUCCGACGAUCCAGGUCUUCAGAGGGGUGGAACUGAGCACACAUUACAUAAUGGUUGUGCCCCGUUAACACACAGACACAGGUUCUAGACUGCCAGUUCCACACCCGAAUGGUCUGAUCAUCUGAGGCGCUCAACAGAGGAUUGAGCAUCA

Biological target: T1, UNK ZnF1-3
Test: nsRBNS (natural sequence RNA bind-n-seq); RBNS binding buffer (assumed for nsRBNS): 25 mM Tris pH 7.5, 150 mM KCl, 3 mM MgCl2, 0.01% Triton X-100, 500 ug/ml BSA, 20 U/ml SUPERase-In, 4 C; UNK is unkempt and MSI1 is Musashi-1; names of the RNAs are library labels; protein concentration not given here; high values mean tight binding

Row | Binder | binding signal [enrichment R]
1 | B1 | 1.52
2 | B2 | 0.956
3 | B3 | 1.3
4 | B4 | 0.307
5 | B5 | 0.447
6 | B6 | 0.432
7 | B7 | 1.15
8 | B8 | 0.999
9 | B9 | 0.611
10 | B10 | 0.912
11 | B11 | 1.07
12 | B12 | 1.78
13 | B13 | 0.327
14 | B14 | 1.14
15 | B15 | 1.69
16 | B16 | 1.62
17 | B17 | 0.618
18 | B18 | 0.567
19 | B19 | 1.94
20 | B20 | 0.846
21 | B21 | 0.858
22 | B22 | 1.06

From article PMC12136788
